One experiment concerns the target T1, GST-TRIM31 (human) (UniProt Q9BZY9).
T1 sequence: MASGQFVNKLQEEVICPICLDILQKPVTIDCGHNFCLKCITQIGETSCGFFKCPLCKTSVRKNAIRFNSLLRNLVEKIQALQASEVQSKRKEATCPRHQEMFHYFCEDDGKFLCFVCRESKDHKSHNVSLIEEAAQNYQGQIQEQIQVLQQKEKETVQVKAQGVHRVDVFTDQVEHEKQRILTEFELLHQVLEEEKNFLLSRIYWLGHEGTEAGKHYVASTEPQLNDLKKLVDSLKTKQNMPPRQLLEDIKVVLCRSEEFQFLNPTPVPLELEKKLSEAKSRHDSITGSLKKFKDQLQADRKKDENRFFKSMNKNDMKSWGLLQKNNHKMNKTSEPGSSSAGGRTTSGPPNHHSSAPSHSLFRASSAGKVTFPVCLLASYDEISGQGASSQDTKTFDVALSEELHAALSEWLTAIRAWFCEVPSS
Nature of the experiment: pull-down.

Protein sequences, listed by entry. Tags and fused reporters are not part of them. Residues count along the entry.
UniProt P03452, residues 18-565: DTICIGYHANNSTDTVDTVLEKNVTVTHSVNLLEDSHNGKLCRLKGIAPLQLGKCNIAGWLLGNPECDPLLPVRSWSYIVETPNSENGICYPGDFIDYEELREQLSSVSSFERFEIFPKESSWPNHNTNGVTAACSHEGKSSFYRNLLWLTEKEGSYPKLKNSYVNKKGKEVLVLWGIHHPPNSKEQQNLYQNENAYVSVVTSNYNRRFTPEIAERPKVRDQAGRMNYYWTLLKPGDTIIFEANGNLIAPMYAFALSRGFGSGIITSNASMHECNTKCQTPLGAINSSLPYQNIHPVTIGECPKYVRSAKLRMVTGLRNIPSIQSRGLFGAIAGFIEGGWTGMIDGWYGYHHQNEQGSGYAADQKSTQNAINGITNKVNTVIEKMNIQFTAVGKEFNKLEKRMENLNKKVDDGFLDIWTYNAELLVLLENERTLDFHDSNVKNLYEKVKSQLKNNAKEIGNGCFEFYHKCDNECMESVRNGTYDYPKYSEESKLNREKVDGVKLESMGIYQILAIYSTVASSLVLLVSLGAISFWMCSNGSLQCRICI
UniProt P03431: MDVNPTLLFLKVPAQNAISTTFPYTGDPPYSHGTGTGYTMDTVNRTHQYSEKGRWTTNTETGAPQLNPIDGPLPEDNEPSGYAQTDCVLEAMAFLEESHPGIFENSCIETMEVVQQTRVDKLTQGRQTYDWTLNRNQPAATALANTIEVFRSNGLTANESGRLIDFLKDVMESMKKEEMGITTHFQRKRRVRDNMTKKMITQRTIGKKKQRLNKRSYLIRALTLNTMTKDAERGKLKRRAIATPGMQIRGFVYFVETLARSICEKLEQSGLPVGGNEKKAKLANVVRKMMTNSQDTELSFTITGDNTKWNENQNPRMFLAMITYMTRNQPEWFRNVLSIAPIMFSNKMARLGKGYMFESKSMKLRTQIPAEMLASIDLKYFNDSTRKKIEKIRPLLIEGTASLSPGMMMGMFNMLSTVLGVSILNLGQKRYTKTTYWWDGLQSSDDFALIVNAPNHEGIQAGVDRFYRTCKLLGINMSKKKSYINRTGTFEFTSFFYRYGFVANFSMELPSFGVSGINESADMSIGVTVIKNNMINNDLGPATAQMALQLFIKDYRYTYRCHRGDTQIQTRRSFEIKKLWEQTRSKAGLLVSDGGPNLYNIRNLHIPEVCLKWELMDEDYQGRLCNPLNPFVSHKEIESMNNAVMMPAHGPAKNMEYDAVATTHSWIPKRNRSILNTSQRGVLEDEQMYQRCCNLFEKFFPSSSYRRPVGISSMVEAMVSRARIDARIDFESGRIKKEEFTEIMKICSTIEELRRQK
UniProt Q7Z434: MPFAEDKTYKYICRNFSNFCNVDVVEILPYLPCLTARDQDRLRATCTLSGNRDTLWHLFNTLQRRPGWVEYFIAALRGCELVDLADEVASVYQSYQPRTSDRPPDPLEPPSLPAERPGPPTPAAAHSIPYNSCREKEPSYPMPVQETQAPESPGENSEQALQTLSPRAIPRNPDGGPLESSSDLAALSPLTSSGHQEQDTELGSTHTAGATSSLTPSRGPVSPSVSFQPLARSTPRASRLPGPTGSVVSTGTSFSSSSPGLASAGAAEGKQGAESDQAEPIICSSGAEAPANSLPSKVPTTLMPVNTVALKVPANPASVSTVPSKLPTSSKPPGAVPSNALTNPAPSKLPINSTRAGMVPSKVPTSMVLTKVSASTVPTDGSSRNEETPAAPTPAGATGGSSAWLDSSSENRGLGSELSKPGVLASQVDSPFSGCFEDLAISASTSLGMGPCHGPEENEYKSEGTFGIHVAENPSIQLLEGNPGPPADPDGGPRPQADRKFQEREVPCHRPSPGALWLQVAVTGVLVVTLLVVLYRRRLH
UniProt P03468: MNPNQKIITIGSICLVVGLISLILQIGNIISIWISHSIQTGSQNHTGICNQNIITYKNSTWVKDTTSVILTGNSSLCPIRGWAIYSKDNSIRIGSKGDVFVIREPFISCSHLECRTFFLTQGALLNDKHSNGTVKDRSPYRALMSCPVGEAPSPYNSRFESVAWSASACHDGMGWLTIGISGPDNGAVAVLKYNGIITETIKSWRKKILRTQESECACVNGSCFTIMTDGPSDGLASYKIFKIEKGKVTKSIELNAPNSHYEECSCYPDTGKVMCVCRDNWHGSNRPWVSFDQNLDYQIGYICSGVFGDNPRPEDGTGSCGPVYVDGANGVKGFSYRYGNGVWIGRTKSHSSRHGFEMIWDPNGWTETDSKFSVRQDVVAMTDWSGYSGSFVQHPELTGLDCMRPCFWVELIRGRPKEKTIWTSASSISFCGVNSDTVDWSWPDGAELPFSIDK

Another experiment addresses T2, Myc-TRIM31 (human) (UniProt Q9BZY9).
T2 sequence: T1 sequence
Nature of the experiment: co-IP.

Experiment [1] has as its target T3, TRIM31 (wild type, as in Fig. 4B, 4C and S2B; tag not given) (human) (UniProt Q9BZY9).
T3 sequence: T1 sequence
Briefly: co-IP.

In experiment [2] the target is T4, Flag-TRIM31 (tripartite motif protein 31) (human) (UniProt Q9BZY9).
T4 sequence: T1 sequence
Nature of the experiment: co-IP.

The target in experiment [3] is T5, endogenous TRIM31 (human (endogenous in HEK293T)) (UniProt Q9BZY9).
T5 sequence: T1 sequence
Nature of the experiment: co-IP.

These are yes or no findings as the source states them, for the method shown. In cells and extracts the contact can be indirect. Some entries that bind do so weakly or less than the wild type. For some of these results: Tags and fused reporters may be left off the sequences shown.

With “Flag-tagged HA from PR8-H1N1 (from UniProt P03452)”, the binding entry (with GST-TRIM31 (human); with Myc-TRIM31 (human); in experiment [1]) was “binds” throughout.

Regarding “Flag-tagged PB1 from PR8-H1N1 (from UniProt P03431 1-757)”, the binding result (in the experiment with GST-TRIM31 (human); with Myc-TRIM31 (human); in experiment [1]) was “binds” in each case.

Take “HA-MAVS (mitochondrial antiviral signaling protein) (from UniProt Q7Z434 1-540)”: the binding result in the experiment with Myc-TRIM31 (human) is given as “binds”.

On to “M1 of PR8/H1N1, from infection (from UniProt P03485 1-252)”, for which the binding entry in experiment [2] is given as “no binding”.

In the case of “NA of PR8/H1N1, from infection (from UniProt P03468 1-454)”, in experiment [2], the binding entry was “no binding”.

With “basic polymerase 1 (PB1) of PR8/H1N1, from infection (from UniProt P03431 1-757)”, the binding entry in experiment [3] and in experiment [2] was “binds” each time.

As for “hemagglutinin (HA) of PR8/H1N1, from infection (from UniProt P03452)”, the binding result in experiment [3] and in experiment [2] was “binds” each time.

The values are drawn from PMC12724384.
